The text below walks through data of ChEMBL document CHEMBL4888484, “Replenishing the malaria drug discovery pipeline: Screening and hit evaluation of the MMV Hit Generation Library 1 (HGL1) against asexual blood stage Plasmodium falciparum ,using a nano luciferase reporter read-out” (2022).

SMILES strings stand for the structures. Screen size: about 150,000 compounds; about 540 (0.36%) showed an effect of 50% or more. The list shows a part of the results.

This experiment relates to Plasmodium falciparum. Nature of the experiment: Primary screen in NF54 nanoGlo assay, in single point, at 2uM, 72h; a lower Z score goes with more inhibition. The settings on record: timepoint 72 hour. It is filed as functional, Erythrocyte.
As for `O=C1COc2ccc(C(=O)N3CCc4sccc4C3)cc2N1`, the % Inhibition (in general, the relative decrease from the control value, in per cent) is listed as -8% and the Z score is on record as 1.17.

Consider `CO[C@@]12CC[C@H](O)C[C@@H]1N(CCc1nc3ccc(C)cc3[nH]1)CC2`, for which the “% Inhibition” value was -8% and the Z score is 0.84.

Take `CC1CCN(CC2CCCN(C(=O)C(C(C)C)N3CC(C)OC(C)C3)C2)CC1` (configuration not stated): the “% Inhibition” value is on record as -11% and the Z score came to 1.24.

Regarding `CC(C)n1nnc2cc(S(=O)(=O)N(C)CC(=O)NCc3ccco3)ccc21`, the “% Inhibition” value is -11% and the Z score came to 0.97.

In the case of `CCn1nc(C)c(CN2C[C@H]3CN(S(=O)(=O)CC)C[C@@]3(c3nc(C)no3)C2)c1C`, the “% Inhibition” value turned out to be 11% and the Z score is -1.45.

Take `COC(=O)[C@@]1(C)CCN(C(=O)c2ccnc3[nH]cnc23)C1`: the “% Inhibition” value is on record as -16% and the Z score came out at 2.92.

For the molecule `Cc1cc(CCNC(=O)NC2CNC2)cc(C)c1O`, the “% Inhibition” value is given as 4% and the Z score is reported as -0.6.

Regarding `COc1ccc2c(=O)c(C(=O)N3CCN(S(C)(=O)=O)CC3)c[nH]c2c1`, the “% Inhibition” value is -17% and the Z score was determined as 2.27.

As for `O=C([C@H]1CC(=O)N(c2ccc(F)c(F)c2)C1)N1CCCO1`, the “% Inhibition” value was -10% and the Z score came out at 1.09.

As for `Cc1cc2n(n1)CCCN2C(=O)CCC(=O)NCCc1ccc(Cl)cc1`, the “% Inhibition” value was -10% and the Z score is 1.23.

With `CN(CC(C)(CO)CO)c1cnccn1`, the “% Inhibition” value is -9% and the Z score was determined as 1.74.

Regarding `CS(=O)(=O)N1CCC[C@H](CCc2ccccc2)C1`, the “% Inhibition” value was -16% and the Z score turned out to be 1.49.

Regarding `Cc1cccc(OCc2nc(CN(CCN3CCOCC3)C(=O)NC(C)(C)C)cs2)c1`, the “% Inhibition” value worked out at 2% and the Z score is -0.26.

For the molecule `NC(=O)c1nccnc1C(=O)NC1CC1c1cccc(Cl)c1` (configuration not stated), the “% Inhibition” value was -1% and the Z score worked out at 0.06.

Regarding `CCc1onc(C)c1[C@@H]1CCCN1Cc1sccc1C`, the “% Inhibition” value is listed as -4% and the Z score stood at 0.5.

Take `c1cc(CNCCc2nc(C3CC3)cs2)c2[nH]ncc2c1`: the “% Inhibition” value was -6% and the Z score is 0.87.

As for `Cc1cc(C)c(S(=O)(=O)Nc2ccc3c(c2)CCCN3S(=O)(=O)c2cccs2)c(C)c1`, the “% Inhibition” value was -21% and the Z score is reported as 2.07.

Take `Cc1cc2n(n1)CCC(=O)N2Cc1ccc(C(=O)NCCCN2CCCCC2)cc1`: the “% Inhibition” value was determined as 2% and the Z score is given as -0.26.

For the molecule `O=C(C1CCOCC1)N1CCc2sccc2C1`, the “% Inhibition” value is recorded as -4% and the Z score was determined as 0.49.

Consider `CCN(CCNC(=O)c1ccc(-n2c(-c3ccccc3)cc3c2CCCC3)cc1)c1ccccc1`, for which the “% Inhibition” value is reported as -17% and the Z score is 3.24.

Consider `Cc1oc(S(C)(=O)=O)cc1C(=O)NCc1ccc(C)n1C`, for which the “% Inhibition” value is -5% and the Z score is reported as 0.7.

As to `Cc1ccc(-n2cc(NCc3cnc([C@H](C)O)s3)cn2)c(C)c1`, the “% Inhibition” value was -16% and the Z score came out at 1.36.

Consider `Cc1ccc2c(C(=O)N3CCCCC3)cc(-c3cncnc3)nc2c1C`, for which the “% Inhibition” value is 3% and the Z score is reported as -0.37.

As to `Cc1cc(Cc2cnc(NC(=O)Cc3c(C)noc3C)s2)ccc1Br`, the “% Inhibition” value was -10% and the Z score amounted to 1.89.

With `O=C(NCc1ccccn1)c1nc[nH]n1`, the “% Inhibition” value was 1% and the Z score is recorded as -0.08.

For `CC[C@H](NC(=O)COCC(N)=O)c1ccc(C)cn1`, the “% Inhibition” value is -3% and the Z score is reported as 0.34.

As to `CN(Cc1ccccc1)S(=O)(=O)N[C@@H]1COCC[C@@H]1OCC1CC1`, the “% Inhibition” value is reported as -4% and the Z score was determined as 0.63.

`CN(Cc1ccc(Cl)s1)C(=O)Cn1cnc(C#N)c1C#N`: the “% Inhibition” value was -6% and the Z score came to 0.5.

In the case of `O=C(c1ccc(Cl)s1)N1CCN(C[C@H](O)C2CC2)CC1`, the “% Inhibition” value was -15% and the Z score amounted to 2.21.

Turning to `O=C(c1ccccc1)[C@@H](C(=O)N1CCC(Cc2ccccc2)CC1)n1ccccc1=O`, the “% Inhibition” value is recorded as -9% and the Z score is on record as 1.34.

`CCc1ccc(CN2CCN(CC3CC3)[C@@H]3CS(=O)(=O)C[C@@H]32)cc1`: the “% Inhibition” value was -10% and the Z score was 1.94.

With `CCOc1cccc([C@@H]2CC(c3ccc(C)cc3)=NC3(CCN(C(C)=O)CC3)N2)c1O`, the “% Inhibition” value was -34% and the Z score is 5.75.

Turning to `CN1CCC(N(C)C(=O)C2CC(=O)N(Cc3cc(C(F)(F)F)cc(C(F)(F)F)c3)C2)C1` (configuration not stated), the “% Inhibition” value is -11% and the Z score is given as 1.08.

In the case of `Cn1nncc1S(=O)(=O)N1CCN(C(=O)c2ccc(Cl)cc2)CC1`, the “% Inhibition” value turned out to be 13% and the Z score is listed as -1.36.

Take `CCc1noc(CN(CC)C(=O)Nc2c(C)c(CC)nn2-c2ccccc2)n1`: the “% Inhibition” value is -10% and the Z score came out at 1.6.

With `O=C(c1ccccc1)N(CCc1nc(-c2ccccc2)no1)Cc1ccco1`, the “% Inhibition” value is -10% and the Z score was determined as 1.57.

For the molecule `COC[C@H](CC(C)C)OC(=O)c1cccc(-n2cccn2)n1`, the “% Inhibition” value came out at 2% and the Z score was -0.31.

`CCCn1cc(NS(=O)(=O)c2cccc3nn(C)nc23)ccc1=O`: the “% Inhibition” value was -7% and the Z score is given as 1.18.

As to `COc1cnc(NC(=O)[C@@]2(C)CCCN(C(=O)c3ccccc3)C2)cn1`, the “% Inhibition” value is listed as -5% and the Z score is given as 0.57.

Take `Cc1nn(CCCNC2CCCCC2)c(C)c1C`: the “% Inhibition” value is -17% and the Z score worked out at 1.87.

Turning to `Cc1noc([C@H](C)NS(=O)(=O)N(C)C(C)C)n1`, the “% Inhibition” value is on record as 4% and the Z score is listed as -0.47.
